Experimental data from PMC4336329 (PLoS ONE, 2015).
The whole screen tested about 310,000 compounds, of which about 2,200 (0.71%) showed an effect of 50% or more. The effect is printed as a negative number. The list shows a part of the results.

These molecules were tested against human ether-à-go-go-related gene (hERG) potassium channel (human, UniProt Q12809) (assay: primary screen, population patch clamp on CHO cells stably expressing hERG).
Chain of human ether-à-go-go-related gene (hERG) potassium channel (Q12809 whole entry, looked up): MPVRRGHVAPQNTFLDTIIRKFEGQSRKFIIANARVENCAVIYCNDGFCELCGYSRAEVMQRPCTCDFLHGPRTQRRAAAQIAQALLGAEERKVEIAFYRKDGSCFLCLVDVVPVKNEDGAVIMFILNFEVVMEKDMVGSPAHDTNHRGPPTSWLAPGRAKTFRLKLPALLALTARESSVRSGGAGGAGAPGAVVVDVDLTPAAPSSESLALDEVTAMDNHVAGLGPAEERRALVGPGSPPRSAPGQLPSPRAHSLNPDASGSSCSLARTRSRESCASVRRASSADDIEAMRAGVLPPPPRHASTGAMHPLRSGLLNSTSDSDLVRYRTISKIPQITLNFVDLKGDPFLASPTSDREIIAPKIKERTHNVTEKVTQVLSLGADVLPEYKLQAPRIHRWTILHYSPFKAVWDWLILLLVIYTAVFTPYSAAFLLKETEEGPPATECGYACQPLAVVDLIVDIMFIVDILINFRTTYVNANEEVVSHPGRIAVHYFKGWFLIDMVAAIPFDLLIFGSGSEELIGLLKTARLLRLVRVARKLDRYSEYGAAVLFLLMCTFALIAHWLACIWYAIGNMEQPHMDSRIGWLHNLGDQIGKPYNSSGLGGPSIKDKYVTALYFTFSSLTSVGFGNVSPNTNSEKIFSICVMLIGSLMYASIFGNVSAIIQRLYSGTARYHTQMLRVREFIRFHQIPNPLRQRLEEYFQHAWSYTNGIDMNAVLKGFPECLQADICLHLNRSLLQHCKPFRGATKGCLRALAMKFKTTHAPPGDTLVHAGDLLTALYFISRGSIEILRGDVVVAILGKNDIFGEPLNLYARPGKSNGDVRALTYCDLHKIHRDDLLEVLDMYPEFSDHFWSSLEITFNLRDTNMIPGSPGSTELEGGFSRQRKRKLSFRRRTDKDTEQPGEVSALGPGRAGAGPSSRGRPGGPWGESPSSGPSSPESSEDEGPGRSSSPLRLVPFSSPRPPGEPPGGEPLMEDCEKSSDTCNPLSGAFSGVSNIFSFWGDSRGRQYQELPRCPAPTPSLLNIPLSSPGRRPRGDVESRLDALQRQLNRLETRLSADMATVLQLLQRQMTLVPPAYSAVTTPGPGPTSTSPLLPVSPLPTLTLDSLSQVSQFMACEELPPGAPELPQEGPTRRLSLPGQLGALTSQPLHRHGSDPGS

Compound | hERG current change (%, negative = inhibition) at 1uM [%]
CC(C)n1nnnc1SCC(=O)NCc1ccc2c(c1)OCO2 | 13
COc1ccc(S(=O)(=O)N2CCCC(C(=O)NCc3ccccn3)C2)cc1Cl (stereo not shown) | -0.453
O=C(COc1cccc2cccnc12)Nc1cccc(S(=O)(=O)N2CCCC2)c1 | 0.359
COc1ccc(-c2nnc(SCc3nnc(-c4cccs4)o3)n2CC2CCCO2)cc1 (stereo not shown) | 2.84
Cc1oc2ccc(O)cc2c1C(=O)c1ccc(Br)cc1 | 13.1
CC12CCCCC1N(O)C(=O)C(=O)N2O (stereo not shown) | 13.8
COc1cc(C(=O)O/N=C2\CCCc3c2ccc(OC)c3[N+](=O)[O-])cc(OC)c1OC | 4.16
c1ccc(CCc2nc(-c3ccc(-n4cccc4)cc3)no2)cc1 | 6.48
O=c1c2ccccc2c(-c2ccc(Cl)cc2)nn1-c1ccccc1 | 8.57
O=C(COC(=O)CCN1C(=O)C2CC=CCC2C1=O)NCCc1ccccc1 (stereo not shown) | -12.7
N#Cc1ccccc1S(=O)(=O)N1CCN(C(=O)[C@H](Cc2ccccc2)NC(=O)c2ccco2)CC1 | 4.5
COc1ccccc1C(=O)CN1C(=O)NC2(CCc3ccccc32)C1=O (stereo not shown) | 7.17
COc1ccc(CN2C(=O)c3cccnc3C2=O)cc1S(=O)(=O)NC1CCCCC1 | 10
O=[N+]([O-])c1cccc(Nc2c([N+](=O)[O-])ccc3nonc23)c1 | 11.9
Cc1cc(NC(=O)C(C)SCC(=O)Nc2cc(Cl)ccc2N2CCN(C)CC2)no1 (stereo not shown) | -7.48
CCOC(=O)Cc1csc(SCC(=O)NC2CCC(C)CC2)n1 (stereo not shown) | 7.87
Cc1c(CCO)c(=O)n(-c2ccccc2)n1S(=O)(=O)c1ccc(Cl)cc1 | 14.6
CCCCNC(=O)c1onc(CSc2cccc(Cl)c2)c1C(=O)O | 3.01
Cc1ccc(Nc2nnc(SC(C)C(=O)Nc3c(C)n(C)n(-c4ccccc4)c3=O)s2)cc1 (stereo not shown) | 17.1
CC(C)COc1ccc(C(=O)NCc2ccco2)cc1 | 8.5
Nc1ccccc1C(=O)N1CCCC1 | 6.59
Cc1ccc(CNC(=O)CCc2ccccc2)cc1 | 5.25

Compound | hERG current change (%, negative = inhibition) at 1uM [%]
CCCC(=O)NC(c1ccc(C)cc1)c1ccc2cccnc2c1O (stereo not shown) | 14
Cc1ccc(-n2ncc3c2CC(C)(C)CC3NC(=O)CCn2cncn2)cc1 (stereo not shown) | -78.5
CC(=O)Nc1nc(=O)c2ccccc2s1 | 6.26
CCOC(=O)c1csc(NC(=O)CSc2nnc(C3CC3)n2C)n1 | 12.4
O=C(c1ccccc1Sc1ccc([N+](=O)[O-])cc1)N1CCCCC1 | 1.13
COc1ccc(Cl)cc1NC(=O)CC1S/C(=N/N=C2CCCCCC2)NC1=O (stereo not shown) | 12.3
CC(C)(C)c1ccc(-c2n[nH]c(=S)n2-c2ccccc2)cc1 | 14.6
COc1ccc2c(CC(=O)Nc3ccc(OC)c(S(=O)(=O)N4CCOCC4)c3)coc2c1 | 5.88
C/C(=C\CCC1(C)C2CC3C(C2)C31C)C(=O)O (stereo not shown) | 11.2
CCN(CC)c1ccc(NC(=O)CCCCC(=O)Nc2ccc(N(CC)CC)cc2)cc1 | 0.481
COc1ccc(S(=O)(=O)n2nc(OC(=O)c3c(-c4ccccc4Cl)noc3C)cc2N)cc1 | 12.7
Nc1[nH]nc2nc(-c3ccccc3)[nH]c(=O)c12 | 16.7
CCc1ccc(NC(=O)CSc2nnc(-c3cnccn3)n2Cc2ccco2)cc1 | -1.43
COc1cccc(NC(=O)CN(C)CC(=O)c2c(C)[nH]c3ccccc23)c1 | 3.24
CC1CCCCN1C(=O)C1COc2ccccc2O1 (stereo not shown) | 13.4
O=C(COC(=O)c1c[nH]c(=O)[nH]c1=O)Nc1cccc([N+](=O)[O-])c1 | 10.3
O/N=C1\CC2(Cc3nonc31)OCCO2 | 12.7
O=C1CN(C(=O)c2ccc(Cl)nc2)c2ccccc2N1 | 6.36
Cc1onc(-c2ccccc2)c1C(=O)N/N=C/c1ccc(Br)cc1 | 7.22
O=C(Nc1ccc2c(c1)OCO2)C1CCCN(S(=O)(=O)c2cccs2)C1 (stereo not shown) | 10.5
O=Cc1c(N2CCN(c3cccc(Cl)c3)CC2)nc2ccccn2c1=O | -4.85
CCOc1cc(Cl)c(NC(=O)c2ccco2)cc1OCC | 5.8

Compound | hERG current change (%, negative = inhibition) at 1uM [%]
CCc1ccc(CCC(=O)Nc2sc3c(c2C#N)CCCC3)o1 | 9.56
COc1cc2nc(SCc3c(C)noc3C)n(CCC3=CCCCC3)c(=O)c2cc1OC | 19.1
Cc1cc(N2CCN(c3ccccc3)CC2)nc(-c2ccccc2O)n1 | 1.33
NS(=O)(=O)c1ccc(NC(=O)CSc2nnc(C3CC3)n2C2CC2)cc1 | 13
CN1C(c2ccccc2)=NO[C@]1(C)c1ccccc1 | 6.69
CC(C)CC(=O)Nc1ccc(C(=O)Cn2nc(C(=O)O)c3ccccc3c2=O)cc1 | -0.503
CN(C)c1ccc(CN(C(=O)COc2ccccc2)C2CCS(=O)(=O)C2)cc1 (stereo not shown) | 5.76
c1ccc(Nc2ncnc3sccc23)cc1 | 7.31
CCOc1ccc(N2C(=O)c3ccccc3C2=O)cc1 | 11.1
N/C(=N\OC(=O)c1ccc(F)cc1)c1ccc(Br)cc1 | 12.6
CCOC(=O)C1CCN(C(=O)CC(NS(=O)(=O)c2ccc(OC)cc2)C(C)C)CC1 (stereo not shown) | 5.27
Cc1ccc(S(=O)(=O)N2CCCC(C(=O)NCCC3=CCCCC3)C2)cc1 (stereo not shown) | 0.432
O=C(Nc1cccc2ncccc12)c1ccco1 | 20.1
COc1cc(NC(=O)C2CCN(S(=O)(=O)c3cccc4nonc34)CC2)cc(OC)c1 | 11.8
CS(=O)(=O)N1N=C(c2ccco2)CC1c1ccco1 (stereo not shown) | 9.6
COc1c(N2CCN(C(=S)Nc3ccccc3F)C(C)C2)c(F)cc2c(=O)c(C(=O)O)cn(C3CC3)c12 (stereo not shown) | 12.7
Nc1nnc(Cc2cccc(Br)c2)s1 | 12
O=C(Cn1nc(-c2ccccc2)c2ccccc2c1=O)NCCO | 10.2
CCC(CO)N=CC1=C(O)C(C(=O)c2ccccc2)CCC1=O (stereo not shown) | 7.56
CCOC(=O)c1cc([N+](=O)[O-])sc1NC(=O)c1ccc(S(=O)(=O)N2CC3(C)CC2CC(C)(C)C3)cc1 (stereo not shown) | 3.1
Cc1cccc(OCC(O)Cn2c(=N)n(Cc3ccccc3)c3ccccc32)c1.Cl (stereo not shown) | -16.4
Cc1ccc[n+](CC(=O)c2ccc(Br)cc2)c1.[Br-] | 10.3

Compound | hERG current change (%, negative = inhibition) at 1uM [%]
CCCCc1nc2cc(C(=O)NCCc3cnn(C)c3)ccc2o1 | 15.7
O=C(/C=C/c1ccc(Cl)cc1Cl)c1nc2ccccc2[nH]1 | 14.4
O=C(CCCOc1ccccc1)N1CCN(c2ccccn2)CC1 | 4.13
CCOc1ccc(CCNC(=O)CN2C(=O)c3cccnc3Oc3ccc(Cl)cc32)cc1 | 7.57
Cc1cccc(-c2nc(CS(=O)CC(=O)NC3CCCCC3)c(C)o2)c1 (stereo not shown) | 10.5
CCN(CC(=O)NC(C)(C)C)C(=O)c1ccc2c(c1)S(=O)(=O)c1ccccc1C2=O | 15.1
CCCN=C1N/C(=C\c2ccco2)C(=O)N1c1ccccc1 | 17.3
C/C(=N\NC(=O)c1ccccc1)C1C2C=CC(C2)C1(C)C (stereo not shown) | 13.7
O=C(NCC1CCCO1)C1CCN(C2CCN(Cc3cccs3)CC2)CC1 (stereo not shown) | -41.4
c1ccc(N2CCN(Cc3ccnc4ccccc34)CC2)cc1 | 5.27
Cl.O=C1CN=C(Nc2cccc(C(F)(F)F)c2)N1C1CCCC1 | 8.43
O=C(O)c1ccc(S(=O)(=O)c2ccccc2C(=O)O)c([N+](=O)[O-])c1 | 21.7
O=C(CSc1n[nH]c(=O)[nH]c1=O)c1ccc(Cl)cc1Cl | 4.94
O=C(NNC(=O)c1cc(-c2ccccc2)n(-c2ccccc2)n1)c1cccc([N+](=O)[O-])c1 | 5.31
CCO.CCSc1nc2ccccc2c(=O)n1-c1c(C)n(C)n(-c2ccccc2)c1=O | 8.37
CCCCCNc1nc(-c2ccccc2)cs1 | 16.5
CCc1ccc(S(=O)(=O)Nc2ccc(-c3nc4cccnc4s3)cc2)s1 | 9.6
COc1ccc(C(=O)CSc2nnc(Cc3ccccc3)o2)cc1 | 13.3
C=CCNC(=O)c1ccccc1NS(=O)(=O)c1ccccc1 | 0.158
CC(C)C(O)(C#CCN1CCCCCC1)c1ccccc1.Cl (stereo not shown) | 6.24
Cc1ccc(-n2nc3c(c2NC(=O)c2ccco2)CS(=O)(=O)C3)c(C)c1 | 12.2
CC(C)(C)NC(=O)[C@@H]1C[C@@H]2CCCC[C@@H]2CN1C[C@@H](O)[C@H](Cc1ccccc1)NC(=O)[C@H](CC(N)=O)NC(=O)c1ccc2ccccc2n1 | 12.2
